# Laboratory results published in the supplement of paper PMC12217912.
# Some of the results follow. The full chains were built here from the parent and the listed change. Inactive controls read about 0.05.
# B1: TEV protease; numbered along this chain (parent)
# chain: MGESLFKGPRDYNPISSSICHLTNESDGHTTSLYGIGFGPFIITNKHLFRRNNGTLVVQSLHGVFKVKDTTTLQQHLVDGRDMIIIRMPKDFPPFPQKLKFREPQREERICLVTTNFQTKSMSSMVSDTSCTFPSGDGIFWKHWIQTKDGQCGSPLVSTRDGFIVGIHSASNFTNTNNYFTSVPKNFMELLTNQEAQQWVSGWRLNADSVLWGGHKVFMVKPEEPFQPVKEATQL
# Variants of: B1
# Experiment: raw area under fraction-flipped curve 0-4 h after induction (AUC4h, not background-subtracted), DNA-recorder readout of cleavage of the substrate (dimensionless); higher = more cleavage of the substrate by the protease variant
# Settings: temperature: 34 °C; time window: 0-4 h after rhamnose induction
# Description: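 In vivo DNA recorder in E. coli TOP10(DE3) ΔrhaA at 34 °C. Each TEVp single-site mutant (parent TEVp 0) is paired with a single-site variant of the 7-mer TEVs (canonical ENLYFQ|S). The substrate sits between flexible linkers in a Bxb1-sfGFP-TEVs-SsrA fusion, so cleavage stabilises Bxb1 and speeds flipping of a recombination array, read by NGS. The value is the raw area under the fraction-flipped curve over 0-4 h after rhamnose induction (AUC4h), with ≥20 reads per time point. It is not background-subtracted; inactive controls average about 0.047.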
# 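Also: Bxb1 expression induced with 0.2% (w/v) L-rhamnose at OD600 near 0.5, cultures sampled hourly, flipped fraction per protease–substrate barcode pair counted by paired-end Illumina sequencing.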
Variant,area with substrate ENLYFCS,area with substrate ENLYFES,area with substrate ENLYFFS,area with substrate ENLYFIS,area with substrate ENLYFKS,area with substrate ENLYFPS,area with substrate ENLYFSS,area with substrate ENLYFTS,area with substrate ENLYFVS,area with substrate ENLYFYS,area with substrate ENLYFDS,area with substrate ENLYFGS,area with substrate ENLYFHS,area with substrate ENLYFLS,area with substrate ENLYFMS,area with substrate ENLYFNS,area with substrate ENLYFRS,area with substrate ENLYFWS
MGESLFKGPRDYNPISSSICHLTNESDGHTTSLYGIGFGPFIITNKHLFRRNNGTLVVQSLHGVFKVKDTRTLQQHLVDGRDMIIIRMPKDFPPFPQKLKFREPQREERICLVTTNFQTKSMSSMVSDTSCTFPSGDGIFWKHWIQTKDGQCGSPLVSTRDGFIVGIHSASNFTNTNNYFTSVPKNFMELLTNQEAQQWVSGWRLNADSVLWGGHKVFMVKPEEPFQPVKEATQL [T71R],0.0697,0.0661,0.0389,0.0569,0.0417,0.0614,0.0804,0.0588,0.0339,0.0632,,,,,,,,
MGESLFKGPRDYNPISSSICHLTNESDGHTTSLYGIGFGPFIITNKHLFRRNNGTLVVQSLHGVFKVKDTGTLQQHLVDGRDMIIIRMPKDFPPFPQKLKFREPQREERICLVTTNFQTKSMSSMVSDTSCTFPSGDGIFWKHWIQTKDGQCGSPLVSTRDGFIVGIHSASNFTNTNNYFTSVPKNFMELLTNQEAQQWVSGWRLNADSVLWGGHKVFMVKPEEPFQPVKEATQL [T71G],0.0562,0.0485,0.0672,0.0621,0.0502,0.0532,,0.0577,,0.0507,0.0611,0.0628,0.0702,0.0614,0.0577,0.0709,0.0511,0.0689
MGESLFKGPRDYNPISSSICHLTNESDGHTTSLYGIGFGPFIITNKHLFRRNNGTLVVQSLHGVFKVKDTQTLQQHLVDGRDMIIIRMPKDFPPFPQKLKFREPQREERICLVTTNFQTKSMSSMVSDTSCTFPSGDGIFWKHWIQTKDGQCGSPLVSTRDGFIVGIHSASNFTNTNNYFTSVPKNFMELLTNQEAQQWVSGWRLNADSVLWGGHKVFMVKPEEPFQPVKEATQL [T71Q],0.0982,,0.0612,0.0556,,,,,0.0466,,0.04,0.0912,,,0.0804,,0.0423,
MGESLFKGPRDYNPISSSICHLTNESDGHTTSLYGIGFGPFIITNKHLFRRNNGTLVVQSLHGVFKVKDTNTLQQHLVDGRDMIIIRMPKDFPPFPQKLKFREPQREERICLVTTNFQTKSMSSMVSDTSCTFPSGDGIFWKHWIQTKDGQCGSPLVSTRDGFIVGIHSASNFTNTNNYFTSVPKNFMELLTNQEAQQWVSGWRLNADSVLWGGHKVFMVKPEEPFQPVKEATQL [T71N],0.0756,0.0903,,0.0333,,0.0656,,0.0503,0.0402,0.0423,0.0553,0.0664,0.0699,,0.0622,,0.0607,0.0495
MGESLFKGPRDYNPISSSICHLTNESDGHTTSLYGIGFGPFIITNKHLFRRNNGTLVVQSLHGVFKYKDTTTLQQHLVDGRDMIIIRMPKDFPPFPQKLKFREPQREERICLVTTNFQTKSMSSMVSDTSCTFPSGDGIFWKHWIQTKDGQCGSPLVSTRDGFIVGIHSASNFTNTNNYFTSVPKNFMELLTNQEAQQWVSGWRLNADSVLWGGHKVFMVKPEEPFQPVKEATQL [V67Y],0.0674,,,0.0832,,,0.0567,0.0579,0.0433,0.0667,,,,0.0559,,,0.0751,
MGESLFKGPRDYNPISSSICHLTNESDGHTTSLYGIGFGPFIITNKHLFRRNNGTLVVQSLHGVFKVKDTTTCQQHLVDGRDMIIIRMPKDFPPFPQKLKFREPQREERICLVTTNFQTKSMSSMVSDTSCTFPSGDGIFWKHWIQTKDGQCGSPLVSTRDGFIVGIHSASNFTNTNNYFTSVPKNFMELLTNQEAQQWVSGWRLNADSVLWGGHKVFMVKPEEPFQPVKEATQL [L73C],0.0648,0.0629,0.0739,0.0651,0.0856,0.057,,0.0716,0.0459,0.0573,,0.065,0.0534,0.0662,0.0591,,,
MGESLFKGPRDYNPISSSICHLTNESDGHTTSLYGIGFGPFIITNKHLFRRNNGTLVVQSLHGVFKVKDTTTLQQHLVDGSDMIIIRMPKDFPPFPQKLKFREPQREERICLVTTNFQTKSMSSMVSDTSCTFPSGDGIFWKHWIQTKDGQCGSPLVSTRDGFIVGIHSASNFTNTNNYFTSVPKNFMELLTNQEAQQWVSGWRLNADSVLWGGHKVFMVKPEEPFQPVKEATQL [R81S],0.0592,0.0714,0.0849,0.0741,0.0555,0.0551,0.0693,0.0604,0.0677,,0.0472,0.0562,0.0708,0.0547,0.0652,0.0766,0.0811,0.0528
MGESLFKGPRDYNPISSSICHLTNESDGHTTSLYGIGFGPFIITNKHLFRWNNGTLVVQSLHGVFKVKDTTTLQQHLVDGRDMIIIRMPKDFPPFPQKLKFREPQREERICLVTTNFQTKSMSSMVSDTSCTFPSGDGIFWKHWIQTKDGQCGSPLVSTRDGFIVGIHSASNFTNTNNYFTSVPKNFMELLTNQEAQQWVSGWRLNADSVLWGGHKVFMVKPEEPFQPVKEATQL [R51W],0.0625,0.0597,0.0606,0.0469,0.0619,0.0633,,0.0629,0.0635,,0.0448,0.0692,0.0681,,0.0725,0.055,0.069,0.0808
MGESLFKGPRDYNPISSSICHLTNESDGHTTSLYGIGFGPFIITNKHLFRRNNGTLVVQSLHGVFKVKDTTTLQQHQVDGRDMIIIRMPKDFPPFPQKLKFREPQREERICLVTTNFQTKSMSSMVSDTSCTFPSGDGIFWKHWIQTKDGQCGSPLVSTRDGFIVGIHSASNFTNTNNYFTSVPKNFMELLTNQEAQQWVSGWRLNADSVLWGGHKVFMVKPEEPFQPVKEATQL [L77Q],0.0575,0.0597,0.0466,0.0533,0.0621,0.0607,0.0644,,,,,,,0.0551,0.0661,0.0455,0.0799,0.0597
MGESLFKGPRDYNPISSSICHLTNESDGHTTSLYGIGFGPFIITNKHLFIRNNGTLVVQSLHGVFKVKDTTTLQQHLVDGRDMIIIRMPKDFPPFPQKLKFREPQREERICLVTTNFQTKSMSSMVSDTSCTFPSGDGIFWKHWIQTKDGQCGSPLVSTRDGFIVGIHSASNFTNTNNYFTSVPKNFMELLTNQEAQQWVSGWRLNADSVLWGGHKVFMVKPEEPFQPVKEATQL [R50I],0.0551,0.0733,0.0581,0.0566,0.085,0.0594,,,,,0.0635,,,0.034,0.0483,,,
MGESLFKGPRDYNPISSSICHLTNESDGHTTSLYGIGFGPFIITNKHLFGRNNGTLVVQSLHGVFKVKDTTTLQQHLVDGRDMIIIRMPKDFPPFPQKLKFREPQREERICLVTTNFQTKSMSSMVSDTSCTFPSGDGIFWKHWIQTKDGQCGSPLVSTRDGFIVGIHSASNFTNTNNYFTSVPKNFMELLTNQEAQQWVSGWRLNADSVLWGGHKVFMVKPEEPFQPVKEATQL [R50G],0.0653,,0.0721,0.061,,0.0623,,,,0.059,0.0523,,,,0.0615,,0.0615,
MGESLFKGPRDYNPISSSICHLTNESDGHTTSLYGIGFGPFIITNKHLFMRNNGTLVVQSLHGVFKVKDTTTLQQHLVDGRDMIIIRMPKDFPPFPQKLKFREPQREERICLVTTNFQTKSMSSMVSDTSCTFPSGDGIFWKHWIQTKDGQCGSPLVSTRDGFIVGIHSASNFTNTNNYFTSVPKNFMELLTNQEAQQWVSGWRLNADSVLWGGHKVFMVKPEEPFQPVKEATQL [R50M],0.0619,0.0679,0.0754,0.0643,0.0689,0.0613,,,0.0934,,,,0.0364,0.0592,0.0662,0.0748,,
MGESLFKGPRDYNPISSSICHLTNESDGHTTSLYGIGFGPHIITNKHLFRRNNGTLVVQSLHGVFKVKDTTTLQQHLVDGRDMIIIRMPKDFPPFPQKLKFREPQREERICLVTTNFQTKSMSSMVSDTSCTFPSGDGIFWKHWIQTKDGQCGSPLVSTRDGFIVGIHSASNFTNTNNYFTSVPKNFMELLTNQEAQQWVSGWRLNADSVLWGGHKVFMVKPEEPFQPVKEATQL [F41H],0.0572,0.0585,0.0625,0.0525,,0.0627,0.0653,0.0591,,0.0492,,,0.0538,,0.0657,0.0538,0.0623,0.0471
MGESLFKGPRDYNPISSSICHLTNESDGHTTSLYGIGFGPFIITNKHLFRRNNGTLVVQSLHGVFKVGDTTTLQQHLVDGRDMIIIRMPKDFPPFPQKLKFREPQREERICLVTTNFQTKSMSSMVSDTSCTFPSGDGIFWKHWIQTKDGQCGSPLVSTRDGFIVGIHSASNFTNTNNYFTSVPKNFMELLTNQEAQQWVSGWRLNADSVLWGGHKVFMVKPEEPFQPVKEATQL [K68G],0.0675,0.0679,0.0712,0.0542,,,,0.07,,0.0671,0.098,,,,0.0767,,0.0529,
MGESLFKGPRDYNPISSSICHLTNESDGHTTSLYGIGFGPFIITNKHLFRRNNGLLVVQSLHGVFKVKDTTTLQQHLVDGRDMIIIRMPKDFPPFPQKLKFREPQREERICLVTTNFQTKSMSSMVSDTSCTFPSGDGIFWKHWIQTKDGQCGSPLVSTRDGFIVGIHSASNFTNTNNYFTSVPKNFMELLTNQEAQQWVSGWRLNADSVLWGGHKVFMVKPEEPFQPVKEATQL [T55L],0.0636,0.0525,,0.0487,,0.0524,,0.0606,0.0607,,,,0.0638,,,0.0642,,0.0521
MGESLFKGPRDYNPISSSICHLTNESDGHTTSLYGIGFGPFIITNKHLFRRNNGNLVVQSLHGVFKVKDTTTLQQHLVDGRDMIIIRMPKDFPPFPQKLKFREPQREERICLVTTNFQTKSMSSMVSDTSCTFPSGDGIFWKHWIQTKDGQCGSPLVSTRDGFIVGIHSASNFTNTNNYFTSVPKNFMELLTNQEAQQWVSGWRLNADSVLWGGHKVFMVKPEEPFQPVKEATQL [T55N],0.0746,0.0625,0.0661,0.0639,0.0658,0.0658,0.0631,0.0673,,,,,,0.0567,0.0655,0.0789,,0.0674
MGESLFKGPRDYNPISSSICHLTNESDGHTTSLYGIGFGPFIITNKHLFRRNNGTLVVQSLHGVFGVKDTTTLQQHLVDGRDMIIIRMPKDFPPFPQKLKFREPQREERICLVTTNFQTKSMSSMVSDTSCTFPSGDGIFWKHWIQTKDGQCGSPLVSTRDGFIVGIHSASNFTNTNNYFTSVPKNFMELLTNQEAQQWVSGWRLNADSVLWGGHKVFMVKPEEPFQPVKEATQL [K66G],0.0549,0.0781,0.0614,0.0504,0.0643,0.0505,,0.0703,0.0551,0.0632,,0.0553,,0.0536,0.0542,0.0548,,
MGESLFKGPRDYNPISSSICHLTNESDGHTTSLYGKGFGPFIITNKHLFRRNNGTLVVQSLHGVFKVKDTTTLQQHLVDGRDMIIIRMPKDFPPFPQKLKFREPQREERICLVTTNFQTKSMSSMVSDTSCTFPSGDGIFWKHWIQTKDGQCGSPLVSTRDGFIVGIHSASNFTNTNNYFTSVPKNFMELLTNQEAQQWVSGWRLNADSVLWGGHKVFMVKPEEPFQPVKEATQL [I36K],0.036,,,0.0428,,0.0463,0.0496,,0.0344,,,,0.0501,0.048,,0.0451,0.0293,
MGESLFKGPRDYNPISSSICHLTNESDGHTTSLYGIGFGPFIITNKHLFRRNNGTLVVQSLHGVHKVKDTTTLQQHLVDGRDMIIIRMPKDFPPFPQKLKFREPQREERICLVTTNFQTKSMSSMVSDTSCTFPSGDGIFWKHWIQTKDGQCGSPLVSTRDGFIVGIHSASNFTNTNNYFTSVPKNFMELLTNQEAQQWVSGWRLNADSVLWGGHKVFMVKPEEPFQPVKEATQL [F65H],0.0541,0.063,0.0661,0.0527,0.0644,0.0538,,0.0527,,0.0563,,,0.067,,0.0692,,,0.0507
